Laboratory results from the RNAGym collection of RNA variant scans (doi:10.1073/pnas.2313332121).
This sample is rich in variants without activity.

B1: TPR 5TU (parent)
chain: GGAUCUUCUCGAUCUAACAAAAAAGACAAAUCUGCCACAAAGCUUGAGAGCAUCUUCGGAUGCAGAGGCGGCAGCCUUCGGUGGCGCGAUAGCGCCAACGUUCUCAACUAUGACACGCAAAACGCGUGCUCCGUUGAAUGGAGUUUAUCAUG

Variants of: B1
Assay: polymerase ribozyme fitness, log enrichment relative to wild type (log ratio); higher = more active; in vitro selection for triplet polymerase activity
Method in brief: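 For each subunit of a heterodimeric triplet polymerase ribozyme, a mutant library was built by PCR and transcribed, then taken through a single in vitro selection round in triplicate. Selection involved annealing to a biotinylated primer, the partner subunit and triplets, incubation frozen at −7 °C, gel excision of extended constructs, capture on streptavidin beads and RT-PCR. Genotypes were retained after Illumina sequencing of inputs and outputs only with ≥10 input reads and ≥1 read in each output. Fitness is defined as the logarithm of a genotype's enrichment relative to wild-type enrichment, using inverse-variance-weighted averages across replicates, with the logarithm taken to base 2.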

Variant | polymerase ribozyme fitness (log ratio)
A16U G50A U55G C95G | ≤ -4.2
A17C A66G C72A C96U U130A G140C A142G | ≤ -4.2
A17G C35A A40C G67U C96A C129G | ≤ -4.2
A16U A23G G62A G86C C105U | ≤ -4.2
A16G C54U C76A C93U A97G C103U C123U G128C | ≤ -4.2
A17C C75U U127A A147G | ≤ -4.2
A16G A20U C32A U45A A47C G83C C93G G140A | ≤ -4.2
A16G A26U C85A C105G C114U G141C U151C | ≤ -4.2
A16G A29C A40U A52C G83A C85U | ≤ -4.2
A16G C43A U53C G70A A73G | ≤ -4.2
A17G A49C A73G G86U | ≤ -4.2
A16G A40G G59U C93A C103G | ≤ -4.2
A17G C85G G126U U127G G141C | ≤ -4.2
U15G G48U C54U C123A G136U | -2.93
A17G C76U | -0.119
A16U A39U U55A U56A G86A | ≤ -4.2
A16U C51A C85G C96A A106G | ≤ -4.2
A16U A30G C35U U55C C79A U90G C93U | ≤ -4.2
A16C G112U A150U | ≤ -4.2
A16C A29G G68A G83C C99A | ≤ -4.2
A16G C43G A60G A89U A91G G100C C105U A137C | ≤ -4.2

Variant | polymerase ribozyme fitness (log ratio)
A17C G133A | -3.15
U15G C99U A142U | -1.77
A16G C54U A60C A89C C116U C125U A142C | ≤ -4.2
A17C U44G G88A C95G C103U G141C | ≤ -4.2
A16G G83U U139G | -1.17
A16G C38A U56G C96U C103U C149G | ≤ -4.2
A16U A17U A40G G42U A52C C54G G68C C95G A121U | ≤ -4.2
A16C U31G U61A A122G G143U | ≤ -4.2
A17U A21G G48C U111G C118A | ≤ -4.2
U15G C85U | -0.0947
A16C A20U A28U C35A G50U G59C G84A C87G C96U C103A U148A | ≤ -4.2
A16U A20G C51U G80U C87A A110U A150U | ≤ -4.2
A16U U55G C87U | -2.67
A17C A23U U104C | ≤ -4.2
A17C G133A U144A A147C | -3.99
A17G C36A C99G A122C U151C | ≤ -4.2
A16C G34U C93U C105U G112A | ≤ -4.2
A17G A39G U56A C85G A115G | -3.92
A16U U33A G42A C93U G140A | ≤ -4.2
U15G U31A | 0.571
A17G A29C C93G C95G A137U A138G | ≤ -4.2

Variant | polymerase ribozyme fitness (log ratio)
A16G U33G G83U U134C | ≤ -4.2
A16U A29U G48U G92A C95U G152U | ≤ -4.2
A16G A28G C93U A110G G152U | ≤ -4.2
A16C C27U U31C G50C C93A G140C | ≤ -4.2
A17G A30U C57G G141U | ≤ -4.2
A16C A17C A24C U61A C93U U111A C123G | ≤ -4.2
A16U A30C U44A G88A C105U U109A | ≤ -4.2
A16C A24G G68U C69A A121G G143A | ≤ -4.2
A16G C27U A28G C43U U53A C57A U82G C93U G143C | ≤ -4.2
A16C A20C A23C C35U U82A G83U | ≤ -4.2
A16C A64G A66U G68C G92U | ≤ -4.2
A16U A19G C57A | -2.39
A16C G83A G94A | -2.79
U15G U55A A97G C105U A107G A113G C131G | ≤ -4.2
A17G A23C A97U C114U | ≤ -4.2
A17C A26U A49C | ≤ -4.2
A16G A28C G88A G92A C116A A120U C131G A147G | ≤ -4.2
A16U A106G | -1.8
A17G A23U A26U C116G A138C A142C | ≤ -4.2
A16U G50A C95G C118G | ≤ -4.2
A16G A22U C35A G42A G68U G83U G94C A98C G143U | ≤ -4.2

Variant | polymerase ribozyme fitness (log ratio)
A16G C85U C118G G140A | ≤ -4.2
A16U A17C U44C U56A C76U G88U C114A | ≤ -4.2
A16U U33G G80C U90C C93G A120U A142U | ≤ -4.2
A16G A49C U56A G62U C105G | ≤ -4.2
A16U A21U A26C A29C A89U U101A A107C A120G | ≤ -4.2
A17G A39G C75U C87G C93U U102G | ≤ -4.2
A16G A49C G50C C85G G117A U148G | ≤ -4.2
A17U A20C G50A C79A C87G C114A U135A | ≤ -4.2
A16C G59A C85G G126U | -2.76
A16C C32U A122G | -3.01
A17C A29C A66U G67A A91G C96U A115G C116A | ≤ -4.2
A16U A39G A89C C95U G152C | ≤ -4.2
A16U G50A G92A C103G G152A | ≤ -4.2
A17C A19U A29C C32U C96U A97U A119U A120C | ≤ -4.2
A17C C76G A113C C118U | ≤ -4.2
A16U A60U C103A C105A | ≤ -4.2
U15G C93U | -2.61
A17G U44A A91G | ≤ -4.2
A16G A24U G59U A64C C75U G92A C132G G141C | ≤ -4.2
U15G C69A C96U | -1.09
A17G U53A C75G A91G A113G G143A | ≤ -4.2
